# From the RNAGym collection of RNA variant scans (doi:10.7554/elife.90254)
# The source gives no read counts; variants with many changes may rest on few reads.
# B1: OR4K15 (parent)
# chain: GUUAACGGUCAUAGGCCAUGGAAACUAGGAGCACCAUUUCGCUGCCAGUGAAGAAAUGAACAAAGAAAAUCUGGGCCAGGCAGGCAUCAAAAGAAAUAGUCUUGCGCUCAACCAGAAAGUCUGUAAUCAUUUUAAGGGUA
# Variants of: B1
# Test: self-cleavage, relative activity (ratio to wild type); higher = more cleavage; in vitro, sequencing; the parent is a self-cleaving ribozyme
row,Variant,self-cleavage
1,A13G A23G A51U,0.58
2,A59G A89U A114G,0.05
3,A4U A51G A54G A118G,0.91
4,A96G A117G U122C,1.58
5,A54G A59U U108C A111G A117G A118G,0
6,A91G U130C U131C,0.54
7,U37C A110G U131C,0.05
8,A13U A30G A96G U127C,1.1
9,A52G A54U A111G A117G,0.06
10,U3A A96G U103C,1.13
11,U9C A22G A30G U130C,1.21
12,U12C A64G U87C,0.92
13,A30G A92G A111G U131C,0.01
14,A27G U43C A114G,0.49
15,U12C A59G A110G U120C,0.16
16,A47U U57G A69G A89C A110G A116G A134G,0
17,U3C A62G U133C,2.28
18,A59G U124A A135U,0.18
19,A11G A55G A62G,0.61
20,U19C A30G A89G A126G,0.42
21,A24G A47U A90G U103C,0.32
22,A54G A86G A91G,0.15
23,A24U A89U U103C U108A,0.01
24,A5U A11U G44A A68U A92G A126G,1.04

row,Variant,self-cleavage
1,A23G A33G U103A,0.31
2,A18G U43A A59U,1.09
3,A36U A56G A117G U133A,1.24
4,A23G A24G A30G A78C U97C A117G U139A,0.36
5,A13G C25U A30G U37A U120C U124C,0.33
6,U38C A78U U122A A126G,0.1
7,A95G A98U A116G,0.44
8,A47G U124C U132C,0.26
9,A33C U38C A59G A110G,0.16
10,U2C A22G A59U A68G,0.36
11,A56U A92G U100C,2.45
12,U57G A59G A90G U131A,0.74
13,U39C A47U U120C G123A,0.27
14,A62G U100A A140G,0.54
15,U72C U87C A118G A126G,0.1
16,A52G A78G U97C,0.2
17,A36G A54G A67G A114G,0.89
18,A66G U103C A110G,0.14
19,A23G A78U U103C,0.11
20,A60G A66G A125G,0.58
21,U39C U49A A82G,0.52
22,A66G A82G A92G,0.51
23,U9C A22G U70C U124C U132C,0.25
24,A52G U100C A114U A134U,0.05

row,Variant,self-cleavage
1,A24G A27G U43A A95G U100C A110G A111G,0.01
2,U19C U39C A90G A92G,1.65
3,A11G U37C A59G,1
4,U26C A64G G74C U108A,0.03
5,A5G G7A U72C U87G,0.24
6,C42A A91G U100C,2.47
7,A90G A114U U127A,0.04
8,U9C U19C A30G A54G U57G A126G,0.68
9,U37C A86G A96G,1.81
10,A18U G106U A110G,0.01
11,A5G U19A A64U,0.82
12,U19C A23G U43C A78G,0.26
13,U37C A54G U87A A89G A94G,0.76
14,A33G A54G A56G A67G U108A,0.03
15,G50A A60G A116G,0.64
16,A22C A52G A116G,1.21
17,G79U A125G A135G,0.02
18,C6U A62G A114G A126G A135G,0.3
19,U49C A78U A116G,0.07
20,A59C A64G U100C,2.59
21,U57C A63G U120A U124C,0.44
22,A23C G65A U102C,1.29
23,A18G U39C A56G A92U,1.2
24,A59G A60G U122A,1.52

row,Variant,self-cleavage
1,U19C A78G A114G A118U U130A,0.02
2,A23G U72C U103C G104U,0.02
3,U2C U37C A60G C88U U131C,0.12
4,A95G A114G U122C U124C,0.13
5,A33G A54G A68G,1.05
6,U26C A55G A114G,0.24
7,U38C A56G A64G A117G A140G,0.6
8,U37C U49C A55G A129G,1.05
9,A55G A68G A90C,1.76
10,U37C U87A U102C U108C,0.01
11,U19A A69G A90G,0.71
12,A63G A86U U130C,1.76
13,A118G U124C U130G,0.44
14,U2C A24C A82G U97C U122C A140G,0.21
15,A22C A78U A96G G106U,0.01
16,A11G U103G U108C,0.08
17,A18U A22G A96G,1.31
18,A30G U43C A116U,0.09
19,U9C U38A A56G,1.61
20,A5U A23C C40U A52G A91U,1.71
21,A23G U87C A117G U132C,0.72
22,U102C C113U A117G,0.5
23,A18U A23G U43C U139C,1.16
24,C6U U43A U120G,0.83

row,Variant,self-cleavage
1,A5G A91G A92G,0.96
2,A125G U127C A129G,0.19
3,A33C U38A U43G A90G A95G A96G,1.95
4,A69G G74U A114U,0.03
5,A30G A47U A55G A94G,0.85
6,G21A A89G A114G U127A,0.27
7,A13G U39C A111G,0.12
8,A59G A63G U108C A114G,0
9,U12C U19C A30G A86G,1.39
10,U2C A23U A98U C109A,0.62
11,U19C A64U A66G A82U A94G A98G A140C,0.08
12,A55G A63U U87A,1.65
13,A67G U102C U124A,1.08
14,C6U A23G C34U U39C U43C U49C U70C U87C,1.23
15,A13U G28U U39C A51G A111G U130C,0.03
16,A47G U87C A91G,0.35
17,A11G A59G A98U A111U U130C,0.14
18,A63G A64C A126G,1.04
19,A36U A96G U127A,2.44
20,G1A A33G U139C,2.25
21,U9A A27C A55G A69U A94G A125G,0.61
22,C6U A54G A60G,1.08
23,U38C A60G U100C,2.3
24,G14A A23U U127C,0.73

row,Variant,self-cleavage
1,U19C A36U A60G A96G U122C,1.59
2,A23G U49A A96G A126G,1.13
3,A55U G106A A117C C128A,0.01
4,A22G A23G A56C,0.84
5,A67G A91G C107U U132C,0.01
6,A5G U49C A126G,1.21
7,A59G U130G U132C,1.75
8,U19C U49C U122C,0.33
9,U19C A30G A66G,0.76
10,U19C A54G U100A U127C,0.32
11,U9C A22G A36U A86U,1.35
12,A11U U19C A60C,0.86
13,A66G U70A A92G U124C,0.35
14,A5U A60G A118U,0.76
15,A5G U102C U124C A135U,1.48
16,U9A A67G G79A A126G,0.04
17,A68G A96C U124A,0.37
18,A18U A55G A125U,1.57
19,G8U U9C A114C,0.02
20,U2A A18U A63G,0.96
21,A91G A95G A140C,1.58
22,C17U A55G A111G,0.06
23,A56G U70C U122C,0.23
24,U9A U12C U43C A86C A117G,0.84

row,Variant,self-cleavage
1,A18U A47G U97C U108C,0.02
2,G31A A51G A69G A90G,1.71
3,A67G A96G U103A,0.34
4,C81U A116U A126G,0.03
5,A24C A30G U38C A54C A95G U127C,1.49
6,U49C A56G A98U A126U,0
7,A18U A22G U100C,1.57
8,C32U A33G A64G,0.39
9,A18G U38C A111U,0.19
10,U37C A90G U100C U108C,0.1
11,A66U A78C U127G,0.17
12,A13U U19C A27U U87C U100C,1.64
13,A59G A94U A118U,0.51
14,A59G U120C G123A,0.78
15,A33G A117G U120A,1.58
16,U9A A11G A92G,1.42
17,A54U U102C U132C,1.95
18,A22G A51U A89G,0.52
19,C6U U12C U26C A30G A86G U103C A140U,0.3
20,A5G A24U A60U,0.87
21,A11G A62G A96G A140C,0.61
22,C17U A95G G106A,0.01
23,A66G U72C A111G,0
